For six substances, binding results are on record in article PMC9119546.

Amino acid sequences for entries named in this document (tags omitted). A change or cut given only in a name is not applied to a line headed by its entry.
UniProt P61077: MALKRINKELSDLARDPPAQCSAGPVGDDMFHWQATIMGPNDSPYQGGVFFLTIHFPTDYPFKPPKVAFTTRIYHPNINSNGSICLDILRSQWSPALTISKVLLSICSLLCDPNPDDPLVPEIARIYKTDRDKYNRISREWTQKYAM
UniProt P23804: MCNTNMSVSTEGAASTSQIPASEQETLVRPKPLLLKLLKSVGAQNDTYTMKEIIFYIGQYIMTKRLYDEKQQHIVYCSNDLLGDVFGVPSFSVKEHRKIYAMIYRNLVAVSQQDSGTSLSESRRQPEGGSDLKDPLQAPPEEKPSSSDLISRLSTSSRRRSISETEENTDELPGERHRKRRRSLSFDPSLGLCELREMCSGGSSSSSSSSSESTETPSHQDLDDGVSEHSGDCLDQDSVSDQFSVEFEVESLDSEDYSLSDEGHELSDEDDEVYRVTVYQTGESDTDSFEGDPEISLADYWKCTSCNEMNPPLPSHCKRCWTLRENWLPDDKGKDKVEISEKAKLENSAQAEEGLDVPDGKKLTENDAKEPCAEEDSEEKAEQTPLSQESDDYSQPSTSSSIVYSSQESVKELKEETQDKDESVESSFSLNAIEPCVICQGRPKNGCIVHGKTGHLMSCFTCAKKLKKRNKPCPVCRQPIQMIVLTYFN
UniProt Q00987: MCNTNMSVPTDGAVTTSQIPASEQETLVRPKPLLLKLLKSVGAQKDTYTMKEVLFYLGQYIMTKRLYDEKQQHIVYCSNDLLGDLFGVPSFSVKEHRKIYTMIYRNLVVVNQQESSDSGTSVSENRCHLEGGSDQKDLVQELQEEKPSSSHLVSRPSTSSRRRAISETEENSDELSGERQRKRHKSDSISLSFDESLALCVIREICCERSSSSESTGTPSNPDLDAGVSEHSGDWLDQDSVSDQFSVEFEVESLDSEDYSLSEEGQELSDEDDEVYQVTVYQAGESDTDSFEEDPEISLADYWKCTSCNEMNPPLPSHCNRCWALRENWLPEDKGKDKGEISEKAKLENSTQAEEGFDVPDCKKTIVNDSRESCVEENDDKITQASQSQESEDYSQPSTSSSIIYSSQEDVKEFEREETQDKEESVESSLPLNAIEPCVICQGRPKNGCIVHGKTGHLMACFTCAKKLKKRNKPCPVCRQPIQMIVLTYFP

Assay [1] concerns the target GST-UbcH5c (UniProt P61077). Put plainly: pull-down; 10 μg GST-UbcH5c (or GST) with cytosolic fraction (300 μg total protein) of 293T cells transfected with mouse MDM2 or MDM2L466A; 20 mM HEPES pH 7.5, 10 mM NaCl, 1 mM DTT, 0.1% Triton X-100; blot with 2A10; only the target purified.
In assay [2] the target is GST-UbcH5c (UniProt P61077). The assay is described as follows: pull-down; GST-UbcH5c (or GST) on glutathione beads, blocked with 3% BSA; 100, 500, 1000 ng recombinant human MDM2 or L468A; 20 mM HEPES pH 7.5, 10 mM NaCl, 1 mM DTT, 0.1% Triton X-100; 1 hour at 4°C; blot with 2A9, 4B11; both purified.
Assay [3] concerns the target T1, FLAG-MDM4 expressed in p53/Mdm2/Mdm4 triple knockout MEFs (UniProt O15151).
T1 sequence: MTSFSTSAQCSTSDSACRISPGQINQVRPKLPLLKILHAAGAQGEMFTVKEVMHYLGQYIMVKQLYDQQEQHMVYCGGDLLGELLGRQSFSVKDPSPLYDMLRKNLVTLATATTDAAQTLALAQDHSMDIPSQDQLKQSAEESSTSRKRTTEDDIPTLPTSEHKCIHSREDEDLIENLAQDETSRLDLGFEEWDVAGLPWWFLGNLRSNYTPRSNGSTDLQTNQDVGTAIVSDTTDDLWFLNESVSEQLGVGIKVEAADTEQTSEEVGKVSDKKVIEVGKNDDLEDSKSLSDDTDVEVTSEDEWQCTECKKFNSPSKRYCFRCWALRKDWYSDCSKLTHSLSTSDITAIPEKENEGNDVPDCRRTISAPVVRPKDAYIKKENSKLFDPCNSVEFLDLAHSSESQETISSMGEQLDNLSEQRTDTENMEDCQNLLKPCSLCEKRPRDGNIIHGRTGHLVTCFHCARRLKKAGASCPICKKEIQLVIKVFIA
Put plainly: co-IP; 500 μg total lysate of p53/Mdm2/Mdm4 triple knockout MEFs co-transfected with FLAG-MDM4 and mouse MDM2 (WT, Y487A or L466A); anti-FLAG M2 beads, IgG as control; blot with 2A10 (MDM2) and 17914-1-AP (MDM4).

These are yes or no findings as the source states them, for the method shown. For part of these data: Binding seen in cells or lysates may run through a third protein. Some binding calls cover weakened binding; strength is not graded here. For part of these data: Where a sequence is shown, tags or fusion partners need not be part of it.

Take “mouse MDM2 (wild type) in cytosolic extract of transfected 293T cells (from UniProt P23804 1-489)”: in the assay with GST-UbcH5c [1], the binding result is recorded as “binds”.
“human MDM2 L468A (HDM2^L468A), recombinant (from UniProt Q00987 1-491)”: the binding result with GST-UbcH5c [2] is on record as “no binding (tested: 100 ng, 500 ng, 1000 ng)”.
Take “mouse MDM2L466A in p53/Mdm2/Mdm4 triple knockout MEFs (from UniProt P23804 1-489)”: in assay [3], the binding result is given as “binds”.
On the same count and under the same terms, with “mouse MDM2Y487A in p53/Mdm2/Mdm4 triple knockout MEFs (from UniProt P23804 1-489)” the entry was “binds”.
For the substance “mouse MDM2L466A in cytosolic extract of transfected 293T cells (from UniProt P23804 1-489)”, the binding entry in the assay with GST-UbcH5c [1] is “no binding”.
On to “mouse MDM2 (wild type) in p53/Mdm2/Mdm4 triple knockout MEFs (from UniProt P23804 1-489)”, for which, in assay [3], the binding entry is on record as “binds”.
